Laboratory results reported in ChEMBL document CHEMBL3585320, “Natural Product Primary Sulfonamides and Primary Sulfamates” (J Nat Prod, 2015).
Values after ≈ are worked out from the molar mass of the structure shown.

Experiments:
[1] = Acute toxicity in iv dose mouse; format: organism-based; conditions: in vivo
Tetranychus urticae = assay: Acaricidal activity against Tetranychus urticae infected on kidney bean leaves assessed as prevention of infection at 10 ppm after 14 days by green house pot test relative to control; format: functional
L1210 = assay: Cytotoxicity against mouse L1210 cells assessed as growth inhibition after 48 hrs by coulter counter analysis; format: functional, cell-based; conditions: L1210, 48 h
[2] = Toxicity in brine shrimp after 48 hrs; format: ADME, organism-based; conditions: artemia salina, in vivo
[3] = Cytotoxicity against mouse invasive mammary carcinoma cells assessed as growth inhibition after 48 hrs by coulter counter analysis; format: functional, cell-based
Streptococcus pyogenes = assay: Antibacterial activity against Streptococcus pyogenes; format: functional
[4] = Antibacterial activity against Xanthomonas citri; format: functional

CN1C=C(C(N)=O)[C@@H]2C[C@H](O)[C@@](NC(=O)CS(N)(=O)=O)(C(=O)O)[C@@H]2C1
LD50 [1]: 0.3 mg/kg | Activity (Tetranychus urticae): 50% | IC50 (L1210): 2120 nM | LC50 at 48 h [2]: 3 µg/mL (≈ 7.97 µM) | IC50 [3]: 2120 nM

Nc1nc(Br)nc2c1ncn2[C@@H]1O[C@H](COS(N)(=O)=O)[C@@H](O)[C@H]1O
MIC (Streptococcus pyogenes): 0.2 µg/mL (≈ 0.47 µM)

C[C@H](N)C(=O)NS(=O)(=O)OC[C@H]1O[C@@H](n2cnc3c(N)nc(Cl)nc32)[C@H](O)[C@@H]1O
MIC [4]: 0.4 µg/mL (≈ 0.885 µM)
